Assay results published in the supplement of paper PMC12217912.
Some of the results follow. The full chains were built here from the parent and the listed change. Inactive controls read about 0.05.

B1: TEV protease; numbered along this chain (parent)
chain: MGESLFKGPRDYNPISSSICHLTNESDGHTTSLYGIGFGPFIITNKHLFRRNNGTLVVQSLHGVFKVKDTTTLQQHLVDGRDMIIIRMPKDFPPFPQKLKFREPQREERICLVTTNFQTKSMSSMVSDTSCTFPSGDGIFWKHWIQTKDGQCGSPLVSTRDGFIVGIHSASNFTNTNNYFTSVPKNFMELLTNQEAQQWVSGWRLNADSVLWGGHKVFMVKPEEPFQPVKEATQL

Variants of: B1
Experiment: raw area under fraction-flipped curve 0-4 h after induction (AUC4h, not background-subtracted), DNA-recorder readout of cleavage of the substrate (dimensionless); higher = more cleavage of the substrate by the protease variant
Conditions: temperature: 34 °C; time window: 0-4 h after rhamnose induction
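Further: Bxb1 expression induced with 0.2% (w/v) L-rhamnose at OD600 near 0.5, cultures sampled hourly, flipped fraction per protease–substrate barcode pair counted by paired-end Illumina sequencing.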

Variant	area with substrate ENLYFCS	area with substrate ENLYFES	area with substrate ENLYFIS	area with substrate ENLYFKS	area with substrate ENLYFLS	area with substrate ENLYFMS	area with substrate ENLYFNS	area with substrate ENLYFPS	area with substrate ENLYFSS	area with substrate ENLYFTS	area with substrate ENLYFVS	area with substrate ENLYFDS	area with substrate ENLYFRS	area with substrate ENLYFYS	area with substrate ENLYFFS	area with substrate ENLYFHS	area with substrate ENLYFWS	area with substrate ENLYFGS
MGESLFKGPRDYNPISSSICHLTNESDGHTTSLYGIGFGPFIITNKHLFRRNNGTLVVQSLHGVFKVKDTTTLQQHLVDGRDMIIIRMPKDFPPFPQKLKFREDQREERICLVTTNFQTKSMSSMVSDTSCTFPSGDGIFWKHWIQTKDGQCGSPLVSTRDGFIVGIHSASNFTNTNNYFTSVPKNFMELLTNQEAQQWVSGWRLNADSVLWGGHKVFMVKPEEPFQPVKEATQL [P104D]	0.0791	0.0566	0.0506	0.0429	0.0489	0.0587	0.0579	0.0508	0.0487	0.0385	0.0463	–	–	–	–	–	–	–
MGESLFKGPRDYNPISSSICHLTNESDGHTTSLYGIGFGPFIITNKHLFRRNNGTLVVQSLHGVFKVKDTTTLQQHLVDGRDMIIIRMPKDFPPFPQKLKFRETQREERICLVTTNFQTKSMSSMVSDTSCTFPSGDGIFWKHWIQTKDGQCGSPLVSTRDGFIVGIHSASNFTNTNNYFTSVPKNFMELLTNQEAQQWVSGWRLNADSVLWGGHKVFMVKPEEPFQPVKEATQL [P104T]	0.0458	0.0518	–	–	0.0799	0.0596	–	–	0.0437	–	–	0.0512	0.0423	0.0684	–	–	–	–
MGESLFKGPRDYNPISSSICHLTNESDGHTTSLYGIGFGPFIITNKHLFRRNNGTLVVQSLHGVFKVKDTTTLQQHLVDGRDMIIIRMPKDFPPFPQKLKFREPQREERICLVTTNFQTKSMSSMVSDTSCTFPSNDGIFWKHWIQTKDGQCGSPLVSTRDGFIVGIHSASNFTNTNNYFTSVPKNFMELLTNQEAQQWVSGWRLNADSVLWGGHKVFMVKPEEPFQPVKEATQL [G136N]	0.0537	0.0648	0.0544	0.0601	0.056	0.0574	0.0581	–	–	0.0698	0.0081	0.0613	0.0409	–	0.0621	0.0568	0.0592	–
MGESLFKGPRDYNPISSSICHLTNESDGHTTSLYGIGFGPFIITNKHLFRRNNGTLVVQSLHGVFKVKDTTTLQQHLVDGRDMIIIRMPKDFPPFPQKLKFREPQREERICLVTTNFQTKSMSSMVSKTSCTFPSGDGIFWKHWIQTKDGQCGSPLVSTRDGFIVGIHSASNFTNTNNYFTSVPKNFMELLTNQEAQQWVSGWRLNADSVLWGGHKVFMVKPEEPFQPVKEATQL [D128K]	0.0562	–	0.0653	–	–	0.0693	–	0.0619	–	0.0465	–	–	–	–	0.0742	0.0629	–	0.0642
MGESLFKGPRDYNPISSSICHLTNESDGHTTSLYGIGFGPFIITNKHLFRRNNGTLVVQSLHGVFKVKDTTTLQQHLVDGRDMIIIRMPKDFPPFPQKLKFREPQREERICLVTTNFQTKSMSSMVSATSCTFPSGDGIFWKHWIQTKDGQCGSPLVSTRDGFIVGIHSASNFTNTNNYFTSVPKNFMELLTNQEAQQWVSGWRLNADSVLWGGHKVFMVKPEEPFQPVKEATQL [D128A]	0.0653	0.0652	0.0619	–	–	0.0614	0.0627	0.0576	0.0723	0.0605	–	–	0.0584	0.0672	0.0733	0.0564	0.0607	–
MGESLFKGPRDYNPISSSICHLTNESDGHTTSLYGIGFGPFIITNKHLFRRNNGTLVVQSLHGVFKVKDTTTLQQHLVDGRDMIIIRMPKDFPPFPQKLKFREPQREERICLVTTNFQTKSMSSMVSFTSCTFPSGDGIFWKHWIQTKDGQCGSPLVSTRDGFIVGIHSASNFTNTNNYFTSVPKNFMELLTNQEAQQWVSGWRLNADSVLWGGHKVFMVKPEEPFQPVKEATQL [D128F]	0.0609	0.0741	0.0612	–	–	0.0701	–	0.0662	0.058	0.0592	0.054	0.0436	–	0.0632	0.0718	0.0638	0.0461	–
MGESLFKGPRDYNPISSSICHLTNESDGHTTSLYGIGFGPFIITNKHLFRRNNGTLVVQSLHGVFKVKDTTTLQQHLVDGRDMIIIRMPKDFPPFPQKLKFREPQREERICLVTTNFQTKSMSSMVSDTSCTFPSGDGIFWKHWIQTKDGQCGSPLVSTKDGFIVGIHSASNFTNTNNYFTSVPKNFMELLTNQEAQQWVSGWRLNADSVLWGGHKVFMVKPEEPFQPVKEATQL [R160K]	0.0749	–	0.0572	–	0.0623	0.0709	–	0.0305	–	0.0581	–	–	–	–	0.0628	0.0723	0.048	–
MGESLFKGPRDYNPISSSICHLTNESDGHTTSLYGIGFGPFIITNKHLFRRNNGTLVVQSLHGVFKVKDTTTLQQHLVDGRDMIIIRMPKDFPPFPQKLKFREPQREERICLVTTNFQTKSMSSMVSDTSCTFPSGDGIFWKHWIQTKDGQCGSPLVSTVDGFIVGIHSASNFTNTNNYFTSVPKNFMELLTNQEAQQWVSGWRLNADSVLWGGHKVFMVKPEEPFQPVKEATQL [R160V]	0.0543	0.0702	0.0503	0.0577	–	0.0617	0.0813	0.0448	–	0.0595	–	–	0.0696	0.0444	0.0497	0.0546	–	0.0678
MGESLFKGPRDYNPISSSICHLTNESDGHTTSLYGIGFGPFIITNKHLFRRNNGTLVVQSLHGVFKVKDTTTLQQHLVDGRDMIIIRMPKDFPPFPQKLKFREPQREERICLVTTNFQTKSMSSMVSDTSCTFPSGDGIFWKHWIQTKDGQCGSPLFSTRDGFIVGIHSASNFTNTNNYFTSVPKNFMELLTNQEAQQWVSGWRLNADSVLWGGHKVFMVKPEEPFQPVKEATQL [V157F]	0.0481	0.0462	0.048	0.0591	–	0.0572	0.0431	0.0714	0.0656	0.0582	–	0.0539	–	–	0.0588	–	0.047	0.0429
MGESLFKGPRDYNPISSSICHLTNESDGHTTSLYGIGFGPFIITNKHLFRRNNGTLVVQSLHGVFKVKDTTTLQQHLVDGRDMIIIRMPKDFPPFPQKLKFREPQREERICLVTTNFQTKSMSSMVSDTSCTFPSGDGIFWKHWIQTKDGQKGSPLVSTRDGFIVGIHSASNFTNTNNYFTSVPKNFMELLTNQEAQQWVSGWRLNADSVLWGGHKVFMVKPEEPFQPVKEATQL [C152K]	0.061	–	0.0632	–	0.0614	0.0675	0.0538	0.0481	–	–	0.0485	–	–	–	0.0759	0.0548	–	–
